Laboratory results taken from the supplement of paper PMC10126150.
Values marked as one replicate rest on one cluster of the flow cell; about a third of the high ones do not repeat.
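Also: ATP exposure 15 min at 22 °C before imaging.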

What follows are sequences tested on ATP (assay: switch fluorescence ratio, 500 uM ATP over buffer (Cy3 cluster intensity, sum of 5 cycles each) (fold (ratio)); higher = stronger signal-on switching upon ATP binding; sequences stand for … in TCGTCGGCAGCGTCAGATGTGTATAAGAGACAGTTTTTTTTTTTTTTTTTTTTTTTTT…TC). Conditions: aptamer strand: ATP DNA aptamer (quencher-CACCTGGGGGAGTATTGCGGAGGAAGG + anchor), 100 nM annealed; ATP concentration: 500 uM; one replicate.
In short: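 The fluorescence ratio divides summed target-cycle Cy3 intensity by summed buffer-cycle Cy3 intensity for each cluster and is averaged per switch-domain sequence. Cy3-labelled switching-strand clusters on a modified Illumina MiSeq flow-cell were annealed to 100 nM quencher-labelled ATP aptamer, then imaged in selection buffer and again after 15 min with 500 uM ATP at 22 °C. Five such cycles were run, with NaOH stripping and re-annealing between them, and clusters outside 100-1000 RFU were excluded.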
For GCGACGGGA, the switch fluorescence ratio was 1.39.
GCGACTCCGA showed a switch fluorescence ratio of 1.72.
Work on GCGACTTGAC yielded a switch fluorescence ratio of 1.06.
For GCGAGAGGCG, the switch fluorescence ratio was 1.01.
In the case of GCGAGCAGGA, the switch fluorescence ratio is reported as 0.988.
In the case of GCGAGCCCCG, the switch fluorescence ratio is reported as 1.02.
Work on GCGAGCGCAT yielded a switch fluorescence ratio of 1.09.
With GCGAGCGGTG the switch fluorescence ratio was 1.01.
GCGAGGAATT gave a switch fluorescence ratio of 0.983.
With GCGAGGCATG the switch fluorescence ratio was 1.19.
Sequence GCGAGTAATG has a switch fluorescence ratio of 1.04.
Sequence GCGAGTAGTA has a switch fluorescence ratio of 1.04.
Sequence GCGATAACTC has a switch fluorescence ratio of 2.48.
Work on GCGATACGTC yielded a switch fluorescence ratio of 1.65.
In the case of GCGATAGAGG, the switch fluorescence ratio is reported as 0.914.
Sequence GCGATAGTTA has a switch fluorescence ratio of 1.02.
GCGATCATTA showed a switch fluorescence ratio of 1.03.
In the case of GCGATTACGG, the switch fluorescence ratio is reported as 1.04.
GCGATTTTGG showed a switch fluorescence ratio of 0.972.
GCGCAAGTCA gave a switch fluorescence ratio of 1.03.
In the case of GCGCAATGGT, the switch fluorescence ratio is reported as 2.39.
GCGCAATTTA showed a switch fluorescence ratio of 1.15.
With GCGCACAGTA the switch fluorescence ratio was 1.01.
GCGCAGAAGT showed a switch fluorescence ratio of 1.09.
GCGCAGTGCA showed a switch fluorescence ratio of 1.03.
GCGCCAAGTC gave a switch fluorescence ratio of 1.15.
Work on GCGCCACGAA yielded a switch fluorescence ratio of 1.05.
GCGCCACTGT was tested, and the switch fluorescence ratio was 1.03.
Sequence GCGCCAGTAC has a switch fluorescence ratio of 4.02.
For GCGCCGCAGT, the switch fluorescence ratio was 3.97.
With GCGCCGCGGT the switch fluorescence ratio was 1.37.
Work on GCGCCGTCCG yielded a switch fluorescence ratio of 0.997.
GCGCCTGTTG gave a switch fluorescence ratio of 1.
GCGCCTTAAC gave a switch fluorescence ratio of 1.2.
In the case of GCGCGAAATA, the switch fluorescence ratio is reported as 0.99.
Work on GCGCGCATAC yielded a switch fluorescence ratio of 1.73.
In the case of GCGCGGACGG, the switch fluorescence ratio is reported as 1.04.
In the case of GCGCGGATGG, the switch fluorescence ratio is reported as 1.01.
For GCGCGGGCCA, the switch fluorescence ratio was 0.967.
GCGCGTGGTG gave a switch fluorescence ratio of 1.02.
In the case of GCGCTAATGG, the switch fluorescence ratio is reported as 1.46.
For GCGCTACTTA, the switch fluorescence ratio was 1.08.
In the case of GCGCTCCGTG, the switch fluorescence ratio is reported as 1.05.
GCGCTCCGTT was tested, and the switch fluorescence ratio was 1.16.
In the case of GCGCTCGTCA, the switch fluorescence ratio is reported as 1.02.
GCGCTCTTGT gave a switch fluorescence ratio of 0.995.
GCGCTGGG showed a switch fluorescence ratio of 1.05.
For GCGCTGGGGC, the switch fluorescence ratio was 1.01.
GCGGAAAATG showed a switch fluorescence ratio of 0.973.
GCGGAACTAA showed a switch fluorescence ratio of 0.973.
GCGGAACTGA was tested, and the switch fluorescence ratio was 0.998.
With GCGGAAGG the switch fluorescence ratio was 1.03.
For GCGGAGATGG, the switch fluorescence ratio was 1.
GCGGAGGATG gave a switch fluorescence ratio of 1.02.
Sequence GCGGAGTGA has a switch fluorescence ratio of 1.07.
Sequence GCGGATGAGG has a switch fluorescence ratio of 0.921.
GCGGATGGGT gave a switch fluorescence ratio of 0.976.
For GCGGCAAGAG, the switch fluorescence ratio was 1.48.
GCGGCAAGTT was tested, and the switch fluorescence ratio was 1.03.
In the case of GCGGCAGAGC, the switch fluorescence ratio is reported as 0.971.
Work on GCGGCAGATG yielded a switch fluorescence ratio of 0.997.
Sequence GCGGCGACA has a switch fluorescence ratio of 1.
For GCGGCGCTCT, the switch fluorescence ratio was 0.974.
Work on GCGGCTAGAG yielded a switch fluorescence ratio of 0.985.
GCGGCTGAAC showed a switch fluorescence ratio of 1.04.
GCGGCTTGTC gave a switch fluorescence ratio of 1.01.
GCGGCTTTTT showed a switch fluorescence ratio of 0.974.
For GCGGGATCTG, the switch fluorescence ratio was 0.976.
GCGGGCCTG showed a switch fluorescence ratio of 0.985.
GCGGGCGACG gave a switch fluorescence ratio of 0.983.
For GCGGGCTAGA, the switch fluorescence ratio was 1.03.
For GCGGGGAAGC, the switch fluorescence ratio was 1.
GCGGGGACAC was tested, and the switch fluorescence ratio was 1.05.
Work on GCGGGGAGT yielded a switch fluorescence ratio of 1.05.
GCGGGGCCCT showed a switch fluorescence ratio of 1.02.
Sequence GCGGGGTCTT has a switch fluorescence ratio of 1.03.
With GCGGGTACGG the switch fluorescence ratio was 0.977.
GCGGGTCCGC gave a switch fluorescence ratio of 1.04.
In the case of GCGGGTTAAC, the switch fluorescence ratio is reported as 1.01.
GCGGTAACCG showed a switch fluorescence ratio of 0.98.
GCGGTAGTGA was tested, and the switch fluorescence ratio was 1.01.
With GCGGTCAGTA the switch fluorescence ratio was 0.991.
GCGGTCATTA showed a switch fluorescence ratio of 0.965.
In the case of GCGGTGTCAT, the switch fluorescence ratio is reported as 1.05.
GCGGTGTCCA showed a switch fluorescence ratio of 1.03.
For GCGGTTAAAT, the switch fluorescence ratio was 1.02.
For GCGGTTCAGG, the switch fluorescence ratio was 1.03.
In the case of GCGGTTGCTT, the switch fluorescence ratio is reported as 1.
Sequence GCGGTTGTGG has a switch fluorescence ratio of 1.02.
With GCGTAAAAT the switch fluorescence ratio was 0.987.
GCGTAACATT gave a switch fluorescence ratio of 1.03.
Work on GCGTAATCAC yielded a switch fluorescence ratio of 2.71.
GCGTACCGGT was tested, and the switch fluorescence ratio was 1.01.
In the case of GCGTACGGCT, the switch fluorescence ratio is reported as 1.02.
GCGTAGAAA was tested, and the switch fluorescence ratio was 1.03.
GCGTATTTTA was tested, and the switch fluorescence ratio was 1.03.
GCGTCAGGAG was tested, and the switch fluorescence ratio was 1.04.
GCGTCCTTTC gave a switch fluorescence ratio of 1.12.
With GCGTCGCTTA the switch fluorescence ratio was 0.983.
In the case of GCGTCGGAAA, the switch fluorescence ratio is reported as 1.44.
